Test results as given in PMC4534575, “The RNA Helicase DHX34 Activates NMD by Promoting a Transition from the Surveillance to the Decay-Inducing Complex” (Cell Reports, 2014).
Substitutions are numbered along the chain they refer to. Names and notes keep the numbering of the source. Results are given in words; binding and its absence hold for the method and conditions named. In cells and extracts the contact can be indirect. Some results given as binding are weak or reduced against the parent protein; the word gives no strength. For part of these data: Tags and fused reporters may be left off the sequences shown. Values belong to the molecule of their own block, whether it stands above or below them.

The chains behind the UniProt entries cited, without tags or fusion partners.
UniProt Q9HAU5: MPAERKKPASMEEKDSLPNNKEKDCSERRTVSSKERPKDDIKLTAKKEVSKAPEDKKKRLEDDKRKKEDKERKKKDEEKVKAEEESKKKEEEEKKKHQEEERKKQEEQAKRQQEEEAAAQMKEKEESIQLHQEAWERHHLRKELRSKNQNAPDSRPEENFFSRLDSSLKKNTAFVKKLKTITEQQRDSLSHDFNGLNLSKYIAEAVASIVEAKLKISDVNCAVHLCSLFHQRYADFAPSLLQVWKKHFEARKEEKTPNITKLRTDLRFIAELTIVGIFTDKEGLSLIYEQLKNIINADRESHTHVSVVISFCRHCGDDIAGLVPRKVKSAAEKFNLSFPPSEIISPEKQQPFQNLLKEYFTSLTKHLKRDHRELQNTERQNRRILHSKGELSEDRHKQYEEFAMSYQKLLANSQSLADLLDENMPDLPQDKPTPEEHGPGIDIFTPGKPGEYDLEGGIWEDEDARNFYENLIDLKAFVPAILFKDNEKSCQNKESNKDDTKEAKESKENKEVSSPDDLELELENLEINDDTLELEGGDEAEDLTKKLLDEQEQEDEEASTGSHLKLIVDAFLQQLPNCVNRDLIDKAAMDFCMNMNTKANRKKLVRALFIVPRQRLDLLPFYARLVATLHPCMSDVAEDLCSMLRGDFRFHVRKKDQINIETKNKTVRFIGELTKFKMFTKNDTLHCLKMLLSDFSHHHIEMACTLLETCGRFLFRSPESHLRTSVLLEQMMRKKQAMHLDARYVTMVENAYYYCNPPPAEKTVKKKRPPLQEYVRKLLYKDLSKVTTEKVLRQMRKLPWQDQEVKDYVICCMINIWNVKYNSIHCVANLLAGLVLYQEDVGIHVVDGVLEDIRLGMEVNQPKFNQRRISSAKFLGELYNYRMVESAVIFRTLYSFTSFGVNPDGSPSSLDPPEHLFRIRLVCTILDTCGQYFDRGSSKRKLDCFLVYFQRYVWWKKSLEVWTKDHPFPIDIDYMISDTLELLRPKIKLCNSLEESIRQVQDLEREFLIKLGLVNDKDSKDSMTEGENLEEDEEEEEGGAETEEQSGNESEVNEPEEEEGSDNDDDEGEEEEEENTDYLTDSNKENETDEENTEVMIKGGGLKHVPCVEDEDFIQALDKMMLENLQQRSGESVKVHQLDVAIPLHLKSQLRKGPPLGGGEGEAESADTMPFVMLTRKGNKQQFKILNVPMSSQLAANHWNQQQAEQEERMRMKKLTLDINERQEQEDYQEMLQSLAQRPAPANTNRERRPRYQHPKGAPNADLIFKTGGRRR

Legend:
[1] = target: T1, endogenous UPF1 (human (endogenous in HEK293T)) (UniProt Q92900); assay: co-IP; endogenous proteins immunoprecipitated from HEK293T cells (Figure S2C; endogenous UPF1 complexes from cells depleted of DHX34 or control, Figure 5D)
T1 sequence: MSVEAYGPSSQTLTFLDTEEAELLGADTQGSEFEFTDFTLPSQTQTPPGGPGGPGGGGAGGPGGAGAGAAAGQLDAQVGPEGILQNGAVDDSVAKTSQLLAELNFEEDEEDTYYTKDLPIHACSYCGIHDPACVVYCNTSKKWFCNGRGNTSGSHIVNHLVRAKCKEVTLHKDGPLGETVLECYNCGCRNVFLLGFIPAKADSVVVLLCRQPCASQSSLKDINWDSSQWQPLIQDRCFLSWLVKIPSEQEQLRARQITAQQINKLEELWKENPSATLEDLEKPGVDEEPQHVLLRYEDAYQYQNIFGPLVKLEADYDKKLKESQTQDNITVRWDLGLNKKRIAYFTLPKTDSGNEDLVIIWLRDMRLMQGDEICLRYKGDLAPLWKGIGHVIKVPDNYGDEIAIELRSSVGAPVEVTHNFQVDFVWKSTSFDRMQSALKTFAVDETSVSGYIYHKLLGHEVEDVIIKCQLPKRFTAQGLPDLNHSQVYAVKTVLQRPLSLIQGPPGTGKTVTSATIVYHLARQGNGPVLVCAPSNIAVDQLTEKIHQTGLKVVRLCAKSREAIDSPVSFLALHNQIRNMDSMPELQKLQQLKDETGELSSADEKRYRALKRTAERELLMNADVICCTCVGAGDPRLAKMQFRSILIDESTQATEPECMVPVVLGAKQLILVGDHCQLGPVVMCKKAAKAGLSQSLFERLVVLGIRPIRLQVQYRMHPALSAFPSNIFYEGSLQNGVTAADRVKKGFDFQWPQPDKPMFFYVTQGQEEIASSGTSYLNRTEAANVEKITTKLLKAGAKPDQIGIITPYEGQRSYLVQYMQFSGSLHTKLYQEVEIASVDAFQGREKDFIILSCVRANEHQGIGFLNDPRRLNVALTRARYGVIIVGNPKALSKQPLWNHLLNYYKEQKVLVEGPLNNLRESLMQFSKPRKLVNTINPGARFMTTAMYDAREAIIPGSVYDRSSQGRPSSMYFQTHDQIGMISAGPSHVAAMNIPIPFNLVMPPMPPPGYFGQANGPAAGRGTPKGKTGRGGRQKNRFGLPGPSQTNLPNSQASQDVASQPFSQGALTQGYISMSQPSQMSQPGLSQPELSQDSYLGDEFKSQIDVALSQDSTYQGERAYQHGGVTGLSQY

[2] = target: T2, FLAG-UPF1 (wild-type) (human) (UniProt Q92900); assay: co-IP; anti-FLAG IP of transiently transfected FLAG-UPF1 (wild-type or mutants) from HEK293T lysate; endogenous partners by western blot; in the absence or presence of RNase A (Figures 2B, S2B); cells also depleted of DHX34 by shRNA, rescued with T7-DHX34, or cotransfected with T7-DHX34
T2 sequence: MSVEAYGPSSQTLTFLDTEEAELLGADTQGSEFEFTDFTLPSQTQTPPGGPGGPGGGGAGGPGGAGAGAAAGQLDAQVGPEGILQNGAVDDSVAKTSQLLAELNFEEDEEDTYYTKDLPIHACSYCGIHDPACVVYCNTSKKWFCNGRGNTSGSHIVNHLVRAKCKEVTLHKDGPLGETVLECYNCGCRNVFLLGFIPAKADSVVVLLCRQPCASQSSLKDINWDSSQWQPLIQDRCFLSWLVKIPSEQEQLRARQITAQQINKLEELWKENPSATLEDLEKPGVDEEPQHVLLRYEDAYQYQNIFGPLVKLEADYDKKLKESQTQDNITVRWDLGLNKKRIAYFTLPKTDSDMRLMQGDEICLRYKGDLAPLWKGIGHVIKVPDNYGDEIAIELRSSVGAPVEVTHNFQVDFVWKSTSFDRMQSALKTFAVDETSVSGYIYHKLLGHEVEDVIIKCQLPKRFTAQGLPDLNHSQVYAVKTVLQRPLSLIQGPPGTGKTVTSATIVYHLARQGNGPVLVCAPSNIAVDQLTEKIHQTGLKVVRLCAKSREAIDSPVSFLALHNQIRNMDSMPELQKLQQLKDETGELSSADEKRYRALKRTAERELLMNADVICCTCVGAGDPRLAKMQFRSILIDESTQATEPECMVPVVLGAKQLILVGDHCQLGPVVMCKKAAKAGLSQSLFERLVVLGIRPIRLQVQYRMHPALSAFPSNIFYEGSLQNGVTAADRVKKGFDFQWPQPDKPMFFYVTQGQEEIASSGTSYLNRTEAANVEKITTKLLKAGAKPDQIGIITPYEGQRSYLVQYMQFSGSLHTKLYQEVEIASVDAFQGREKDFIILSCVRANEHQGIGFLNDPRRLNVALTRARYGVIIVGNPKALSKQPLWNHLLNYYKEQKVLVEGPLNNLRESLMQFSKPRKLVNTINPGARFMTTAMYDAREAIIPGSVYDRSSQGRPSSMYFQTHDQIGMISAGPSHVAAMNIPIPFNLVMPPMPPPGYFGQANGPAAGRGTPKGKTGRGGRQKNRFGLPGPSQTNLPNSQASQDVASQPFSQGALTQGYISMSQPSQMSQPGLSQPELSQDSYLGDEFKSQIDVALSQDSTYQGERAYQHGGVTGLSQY

[3] = target: T3, FLAG-UPF1 C126S (human) (UniProt Q92900); assay: co-IP; anti-FLAG IP from HEK293T cells cotransfected with FLAG-UPF1 (wild-type or mutants) and T7-DHX34 (wild-type or ATPase mutants); RNase A in Figure 3C; T7-DHX34 by western blot
T3 sequence: T2 sequence with C126S

[4] = target: T4, FLAG-UPF1 LECY181-184VRVD (human) (UniProt Q92900); assay: as above
T4 sequence: T2 sequence with L181V, E182R, C183V, Y184D

- binding [1]: binds
- binding [2]: binds
Molecule: endogenous UPF2 (from UniProt Q9HAU5 1-1272)

- binding [3]: binds
- binding [4]: binds
B1: T7-DHX34 K191S (protein, UniProt Q14147 1-1143)
chain: MPPPRTREGRDRRDHHRAPSEEEALEKWDWNCPETRRLLEDAFFREEDYIRQGSEECQKFWTFFERLQRFQNLKTSRKEEKDPGQPKHSIPALADLPRTYDPRYRINLSVLGPATRGSQGLGRHLPAERVAEFRRALLHYLDFGQKQAFGRLAKLQRERAALPIAQYGNRILQTLKEHQVVVVAGDTGCGSSTQVPQYLLAAGFSHVACTQPRRIACISLAKRVGFESLSQYGSQVGYQIRFESTRSAATKIVFLTVGLLLRQIQREPSLPQYEVLIVDEVHERHLHNDFLLGVLQRLLPTRPDLKVILMSATINISLFSSYFSNAPVVQVPGRLFPITVVYQPQEAEPTTSKSEKLDPRPFLRVLESIDHKYPPEERGDLLVFLSGMAEISAVLEAAQTYASHTQRWVVLPLHSALSVADQDKVFDVAPPGVRKCILSTNIAETSVTIDGIRFVVDSGKVKEMSYDPQAKLQRLQEFWISQASAEQRKGRAGRTGPGVCFRLYAESDYDAFAPYPVPEIRRVALDSLVLQMKSMSVGDPRTFPFIEPPPPASLETAILYLRDQGALDSSEALTPIGSLLAQLPVDVVIGKMLILGSMFSLVEPVLTIAAALSVQSPFTRSAQSSPECAAARRPLESDQGDPFTLFNVFNAWVQVKSERSRNSRKWCRRRGIEEHRLYEMANLRRQFKELLEDHGLLAGAQAAQVGDSYSRLQQRRERRALHQLKRQHEEGAGRRRKVLRLQEEQDGGSSDEDRAGPAPPGASDGVDIQDVKFKLRHDLAQLQAAASSAQDLSREQLALLKLVLGRGLYPQLAVPDAFNSSRKDSDQIFHTQAKQGAVLHPTCVFAGSPEVLHAQELEASNCDGSRDDKDKMSSKHQLLSFVSLLETNKPYLVNCVRIPALQSLLLFSRSLDTNGDCSRLVADGWLELQLADSESAIRLLAASLRLRARWESALDRQLAHQAQQQLEEEEEDTPVSPKEVATLSKELLQFTASKIPYSLRRLTGLEVQNMYVGPQTIPATPHLPGLFGSSTLSPHPTKGGYAVTDFLTYNCLTNDTDLYSDCLRTFWTCPHCGLHAPLTPLERIAHENTCPQAPQDGPPGAEEAALETLQKTSVLQRPYHCEACGKDFLFTPTEVLRHRKQHV

B2: T7-DHX34 D279A (protein, UniProt Q14147 1-1143)
chain: B1 chain with S191K, D279A
- binding [3]: binds
- binding [4]: binds
